Experimental data published in patent US20150344583A1 (Amgen, published 2015).

Target: T1, human BCMA (huBCMA) on cells (human, UniProt Q02223 1-184)
T1 construct: endogenous on H929, JD38 and other myeloma and B-cell lines and on patient plasma cells; also called native human BCMA
T1 chain: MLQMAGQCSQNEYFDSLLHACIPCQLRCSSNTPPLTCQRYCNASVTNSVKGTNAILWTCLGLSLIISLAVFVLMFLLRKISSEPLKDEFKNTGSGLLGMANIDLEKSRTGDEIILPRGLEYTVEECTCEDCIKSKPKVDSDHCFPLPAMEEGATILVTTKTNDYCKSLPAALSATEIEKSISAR
Assay: FACS, H929 cells

B1: 2A1 Covariance 1 (2A1_C107T) (antibody, human IgG1, lambda)
heavy: EVQLVESGGGLVKPGRSLRLSCTASGFTFGDYALSWFRQAPGKGLEWVGVSRSKAYGGTTDYAASVKGRFTISRDDSKSFAYLQMNSLKTEDTAVYYCTSSGYSSGWTPFDYWGQGTLVTVSS[omitted - human IgG1 constant region]
light: QSVLTQPPSASGTPGQRVTISCSGSSSNIGSNTVNWYQQLPGTAPKLLIFNYHQRPSGVPDRFSGSKSGSSASLAISGLQSEDEADYYCAAWDDSLNGWVFGGGTELTVLGQPKAAPSVTLFPPSSEELQANKATLVCLISDFYPGAVTVAWKADSSPVKAGVETTTPSKQSNNKYAASSYLSLTPEQWKSHRSYSCQVTHEGSTVEKTVAPTECS
notes: IgG1 mutein of 2A1; also called Ab-19
B1 was tested, and the “EC50 (read off the curve)” value was about 0.4 mg/L.
